Test results published in the supplement of paper PMC7125110.
± gives the standard error. Variants at the background level are over-represented here.

B1: glmS ribozyme (parent)
chain: AUAAAAGCGCCAGAACUACAGAAAUGUAGUUGACGAGGAGGAGGUUUAUCGAAUUUUCGGCGGAUGCCUCCAAA

What was measured:
Settings in all cases: with glucosamine-6-phosphate
[1] = variants of: B1; test: self-cleavage kobs at 40 uM GlcN6P; higher = faster cleavage; RNA array
In short: (§1)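 Glucosamine-6-phosphate (40 μM to 10 mM) in HEPES/KCl/Mg(OAc)2 buffer was flowed over sequenced MiSeq chips, and tiles were imaged over ~14 h. Barcoded ribozyme variants there had been transcribed in situ by E. coli RNA polymerase and were tracked through a hybridised Cy3 probe at 37 °C. One- or two-exponential decay fits to per-tile medians, normalised to baseline and to non-cleaving reference variants, gave kobs. kcat and KM came from weighted Michaelis–Menten fits across concentrations.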

[2] = variants of: B1; test: self-cleavage kobs at 640 uM GlcN6P; higher = faster cleavage; RNA array
In short: as §1

[3] = variants of: B1; test: self-cleavage kobs at 2500 uM GlcN6P; higher = faster cleavage; RNA array
In short: as §1

[4] = variants of: B1; test: self-cleavage kobs at 10000 uM GlcN6P; higher = faster cleavage; RNA array
In short: as §1

[5] = variants of: B1; test: self-cleavage kobs at 160 uM GlcN6P; higher = faster cleavage; RNA array
In short: as §1

Row | Variant | self-cleavage kobs at 40 uM GlcN6P [1] [s⁻¹] | self-cleavage kobs at 640 uM GlcN6P [2] [s⁻¹] | self-cleavage kobs at 2500 uM GlcN6P [3] [s⁻¹] | self-cleavage kobs at 10000 uM GlcN6P [4] [s⁻¹] | self-cleavage kobs at 160 uM GlcN6P [5] [s⁻¹]
1 | C34U A64U | < 1e-05 | < 1e-05 | < 1e-05 |  | 
2 | C34U A64U C67A | < 1e-05 |  |  | < 1e-05 | 
3 | C34U G38A | < 1e-05 | < 1e-05 |  | < 1e-05 | 
4 | C34U G66A | < 1e-05 | < 1e-05 |  | < 1e-05 | 
5 | G35A A64C | < 1e-05 | < 1e-05 | < 1e-05 | < 1e-05 | < 1e-05
6 | G35A G51C C58U | < 1e-05 |  |  | < 1e-05 | 
7 | G35C A36G | < 1e-05 | < 1e-05 | < 1e-05 | < 1e-05 | < 1e-05
8 | G35C A39G C70U | < 1e-05 |  |  | < 1e-05 | 
9 | G35C A42C | < 1e-05 |  | < 1e-05 | < 1e-05 | < 1e-05
10 | G35C C68A C71U | < 1e-05 | < 1e-05 | < 1e-05 | < 1e-05 | 
11 | G35C G37A | < 1e-05 |  | < 1e-05 |  | 
12 | G35C G51U | < 1e-05 | < 1e-05 | < 1e-05 | < 1e-05 | < 1e-05
13 | G35C U46A | < 1e-05 | < 1e-05 |  | < 1e-05 | < 1e-05
14 | G35U A36C G44U U55A | < 1e-05 |  |  |  | 
15 | G35U A52G G59A | < 1e-05 |  |  |  | 
16 | G35U C68G | 0.000484 ± 0.00019 |  |  |  | 
17 | G35U G41U U45G | < 1e-05 | < 1e-05 | < 1e-05 | < 1e-05 | < 1e-05
18 | G35U G44U | < 1e-05 | < 1e-05 | < 1e-05 | < 1e-05 | < 1e-05
19 | G35U G60C A64U | < 1e-05 |  |  |  | 
20 | G35U U45A U57C C67A C68A | < 1e-05 |  |  |  | 
21 | G35U U46A | < 1e-05 | < 1e-05 | < 1e-05 | < 1e-05 | 
22 | G35U U55A C58A | < 1e-05 | < 1e-05 | < 1e-05 |  | < 1e-05
